The full ranking holds about 33,000 sequences; the median of “E-score (-0.5 to 0.5)” is about -0.043, and the highest 2% start at about 0.37. The list shows a part of the results.
Each sequence was assayed against T1, Upc2 (UniProt Q12151) (assay: PBM E-score (8-mer binding enrichment) (E-score (-0.5 to 0.5)); higher = stronger / more preferred TF binding; most listed sequences are background and not binding sites). Settings: protein concentration: 200 nM; construct: GST-full length.
T1 sequence: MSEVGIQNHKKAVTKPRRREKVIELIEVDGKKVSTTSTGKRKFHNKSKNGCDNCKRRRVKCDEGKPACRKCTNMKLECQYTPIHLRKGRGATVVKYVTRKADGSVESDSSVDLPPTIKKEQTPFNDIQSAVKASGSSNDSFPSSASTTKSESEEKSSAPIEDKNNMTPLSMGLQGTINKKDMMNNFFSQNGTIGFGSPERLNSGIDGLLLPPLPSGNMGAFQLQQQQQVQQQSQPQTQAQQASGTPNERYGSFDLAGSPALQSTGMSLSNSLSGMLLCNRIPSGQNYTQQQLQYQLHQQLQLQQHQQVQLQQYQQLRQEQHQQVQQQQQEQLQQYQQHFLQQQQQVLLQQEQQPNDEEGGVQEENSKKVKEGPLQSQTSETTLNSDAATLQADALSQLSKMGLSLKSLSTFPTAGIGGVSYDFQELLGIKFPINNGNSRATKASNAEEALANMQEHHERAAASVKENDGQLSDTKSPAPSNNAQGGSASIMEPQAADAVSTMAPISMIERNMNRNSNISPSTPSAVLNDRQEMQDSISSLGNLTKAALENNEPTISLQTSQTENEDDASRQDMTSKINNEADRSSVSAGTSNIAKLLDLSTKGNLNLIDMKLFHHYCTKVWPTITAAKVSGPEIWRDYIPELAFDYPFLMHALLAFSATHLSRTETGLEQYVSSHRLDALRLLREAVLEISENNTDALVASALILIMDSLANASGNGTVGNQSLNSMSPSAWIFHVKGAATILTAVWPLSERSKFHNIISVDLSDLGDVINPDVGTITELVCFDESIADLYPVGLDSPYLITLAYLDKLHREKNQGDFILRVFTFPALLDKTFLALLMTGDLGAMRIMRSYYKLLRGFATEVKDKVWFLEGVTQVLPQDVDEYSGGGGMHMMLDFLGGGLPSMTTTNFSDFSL
Procedure, shortened: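 Yeast transcription factors, full-length or as DNA-binding domains, were expressed with a GST tag using PURExpress in vitro transcription/translation. At about 100-200 nM they were applied to universal all-10-mer Agilent arrays, double-stranded by primer extension on fresh or once-stripped slides. Fluorescent anti-GST detected bound protein, and masliner normalised the scans. E-scores for ungapped eight-base words, pooled with reverse complements, came from the Universal PBM Analysis Suite.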

Sequence	PBM E-score
ACGGCCAA	0.029
CGTCTCGC	0.154
AGCAACTC	-0.104
AATCTGAA	-0.00542
AATCTAGC	-0.246
GCATCAGC	-0.0568
TAGCATCA	0.0711
TCCCAAAA	-0.0439
CTCCGTTC	0.303
CACAGACC	-0.135
ACACTCCT	-0.0951
AATGATAA	-0.0482
AATTCCAC	-0.028
GGCCAACC	-0.0824
GGCCAGAC	-0.255
GGATTAAA	-0.0169
GCGGTTGA	-0.0408
ATTTAGTA	0.0218
TCTGGCCA	-0.105
ATGGGGCG	-0.17
ATCGACGC	-0.00833
GCGATACC	-0.131

Sequence	PBM E-score
CCTTAGCA	-0.336
AGAACTGA	0.0936
AAACGTAT	0.328
ACTGGCAA	-0.126
ACCGTAAA	0.368
AAATGTGG	-0.107
GCGCAAAA	-0.0337
AGGCGGCC	-0.229
AGGTCGAC	-0.16
ACTTGCAC	-0.185
AGACCACC	-0.212
AAGTTCAT	-0.183
CACGTTGC	-0.0178
AGGGAGTA	-0.238
GGACCCCC	-0.293
GAGCGCGC	0.0196
CATCCAAG	-0.331
GCTAGTTA	-0.0367
CCTTCAAG	-0.223
AGCACGAT	0.0297
AAGGGTAG	-0.266
AGCGCGGA	-0.111

Sequence	PBM E-score
CTTTGCCC	-0.114
ACGCACTA	0.0867
ATGTATGG	-0.176
CCCCTGAA	-0.00284
AGACCCCC	-0.223
ATCTATTA	-0.0156
ATTCTATG	-0.243
AGGATATG	-0.159
ATACCGAA	0.273
TGAACAAA	0.135
ATACGGGC	0.426
CAGTCTGG	-0.231
GCAGAATA	0.0427
CAACTCAC	-0.252
ACGAGCCC	0.358
AAGTTCCT	0.00251
AGTACTAA	-0.0785
AAGACACG	0.154
AGTCCGTC	-0.208
AGATTCCA	-0.0417
ATGTTCAA	-0.0877
CGTGGTTA	0.0791

Sequence	PBM E-score
CCGCCTTA	-0.12
CAGGTTGG	-0.0343
ACAATGCA	-0.0758
CCGCACGG	-0.178
CGAAAGCC	-0.156
TATATGAA	0.104
GAGGTATA	0.144
ACGATGCA	0.344
ATAGTAGA	-0.0157
ACTGTTGA	-0.185
AGTATCTG	-0.211
GAGCTCGA	0.229
ATGCCCTC	-0.0626
CTACAGAA	0.0595
ATCATCGC	0.0369
CCTTTGTC	-0.0379
CAGAAATA	0.0181
AACGGCAC	0.242
CTCCGAAG	-0.0527
AATTTTTG	-0.139

— the supplement of paper PMC3334620
